According to US20050032185:

What was measured:
[1] = biological target: GST-PKBα (full length human protein kinase Bα with N-terminal glutathione S-transferase, from unstimulated 293 cells) [GST: P08515]
[2] = biological target: GST-ΔPH-PKBα (residues 118-479 of human PKBα, lacking the PH domain), P31749
Sequence of GST-ΔPH-PKBα (residues 118-479 of human PKBα, lacking the PH domain), P31749 (P31749 whole entry, looked up, stated change not applied, the tested form may be a part): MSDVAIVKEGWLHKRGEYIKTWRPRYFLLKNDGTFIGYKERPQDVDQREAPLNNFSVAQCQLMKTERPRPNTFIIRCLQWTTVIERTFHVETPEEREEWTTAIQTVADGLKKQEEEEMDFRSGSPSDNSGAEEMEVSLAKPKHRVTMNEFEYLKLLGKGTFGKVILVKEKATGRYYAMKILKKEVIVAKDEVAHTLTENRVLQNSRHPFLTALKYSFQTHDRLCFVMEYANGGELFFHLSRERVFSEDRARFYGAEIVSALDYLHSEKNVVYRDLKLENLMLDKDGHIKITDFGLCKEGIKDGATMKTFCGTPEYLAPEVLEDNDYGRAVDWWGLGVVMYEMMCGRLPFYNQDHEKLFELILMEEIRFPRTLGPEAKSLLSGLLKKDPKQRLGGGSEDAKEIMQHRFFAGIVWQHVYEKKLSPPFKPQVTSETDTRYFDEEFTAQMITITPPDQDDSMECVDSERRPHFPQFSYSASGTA

B1: GST-PDK1 ([…], full length human PDK1) (protein)
chain 1: [about 200 residues not shown]
chain 2: MARTTSQLYDAVPIQSSVVLCSCPSPSMVRTQTESSTPPGIPGGSRQGPAMDGTAAEPRPGAGSLQHAQPPPQPRKKRPEDFKFGKILGEGSFSTVVLARELATSREYAIKILEKRHIIKENKVPYVTRERDVMSRLDHPFFVKLYFTFQDDEKLYFGLSYAKNGELLKYIRKIGSFDETCTRFYTAEIVSALEYLHGKGIIHRDLKPENILLNEDMHIQITDFGTAKVLSPESKQARANSFVGTAQYVSPELLTEKSACKSSDLWALGCIIYQLVAGLPPFRAGNEYLIFQKIIKLEYDFPEKFFPKARDLVEKLLVLDATKRLGCEEMEGYGPLKAHPFFESVTWENLHQQTPPKLTAYLPAMSEDDEDCYGNYDNLLSQFGCMQVSSSSSSHSLSASDTGLPQRSGSNIEQYIHDLDSNSFELDLQFSEDEKRLLLEKQAGGNPWHQFVENNLILKMGPVDKRKGLFARRRQLLLTEGPHLYYVDPVNKVLKGEIPWSQELRPEAKNFKTFFVHTPNRTYYLMDPSGNAHKWCRKIQEVWRQRYQSHPDAAVQ
specific activity towards GST-PKBα in the presence of PtdIns(3,4,5)P3 [1]: GST-PDK1 (residues 1 to 556, 89 000 U/mg) | rate of activation of GST-ΔPH-PKBα by PDK1 compared to wild-type GST-PKBα [2]: the rate of activation was reduced about 20-fold compared to wild-type GST-PKBα

B2: GST-PDK1 ([…] of human PDK1) (protein)
chain 1: [about 200 residues not shown]
chain 2: DGTAAEPRPGAGSLQHAQPPPQPRKKRPEDFKFGKILGEGSFSTVVLARELATSREYAIKILEKRHIIKENKVPYVTRERDVMSRLDHPFFVKLYFTFQDDEKLYFGLSYAKNGELLKYIRKIGSFDETCTRFYTAEIVSALEYLHGKGIIHRDLKPENILLNEDMHIQITDFGTAKVLSPESKQARANSFVGTAQYVSPELLTEKSACKSSDLWALGCIIYQLVAGLPPFRAGNEYLIFQKIIKLEYDFPEKFFPKARDLVEKLLVLDATKRLGCEEMEGYGPLKAHPFFESVTWENLHQQTPPKLTAYLPAMSEDDEDCYGNYDNLLSQFGCMQVSSSSSSHSLSASDTGLPQRSGSNIEQYIHDLDSNSFELDLQFSEDEKRLLLEKQAGGNPWHQFVENNLILKMGPVDKRKGLFARRRQLLLTEGPHLYYVDPVNKVLKGEIPWSQELRPEAKNFKTFFVHTPNRTYYLMDPSGNAHKWCRKIQEVWRQRYQSHPDAAVQ
increase in GST-PKBα activity at maximal phosphorylation [1]: paralleled by a 35 fold increase in activity | maximal phosphorylation of GST-PKBα (mol phosphate per mol protein) [1]: the phosphorylation of GST-PKBα reached 0.75 mol phosphate per mol protein | specific activity towards GST-PKBα in the presence of PtdIns(3,4,5)P3 [1]: GST-PDK1 (residues 52 to 556, 78 000 U/mg)
